Where a name gives a salt, the structure may show the parent alone. ± gives the standard deviation of the averaged measurements. The list shows a part of the results.
Tested on: OVCAR8
Assay: cell count relative to DMSO vehicle (fold change); OVCAR8 is a high-grade serous ovarian cancer line and CX-5461 an RNA polymerase I inhibitor; higher = more surviving senescent cells (less killing)
Details: senescence inducer: CX-5461 3 µM 48 h, then 6 d recovery (CX senescent), exposure time 24 h

Row | Compound | cell count (compound dose 1 µM) | cell count (compound dose 5 µM)
1 | O=c1ccc2ccc(O)cc2o1 | 1.05 ± 0.025 | 1.11 ± 0.029
2 | COc1ccc([C@@H]2CC(=O)c3c(O)cc(O[C@@H]4O[C@H](CO[C@@H]5O[C@@H](C)[C@H](O)[C@@H](O)[C@H]5O)[C@@H](O)[C@H](O)[C@H]4O)cc3O2)cc1O [Hesperidin] | 1.05 ± 0.2 | 1.03 ± 0.15
3 | CC(C)(C)S(=O)(=O)c1cc2c(Nc3ccc4scnc4c3)ncnc2cc1OCCO | 1.1 ± 0.25 | 1.06 ± 0.094
4 | Cc1cc(OCCCc2c3n(c4c(-c5c(C)nn(C)c5C)c(Cl)ccc24)[C@H](C)CN(c2cn(C)c4ccc(C(=O)O)cc24)C3=O)cc(C)c1Cl | 1.01 ± 0.13 | 1.24 ± 0.18
5 | CC(C(=O)O)c1ccc2c(c1)Cc1cccnc1O2 (stereo not drawn) | 0.895 ± 0.089 | 0.993 ± 0.12
6 | Clc1ccc(NN=C(c2ccccc2)c2ccccn2)nc1 | 1.15 ± 0.12 | 1.35 ± 0.052
7 | CN[C@H](C(=O)N[C@H](C(=O)N(C)[C@H](/C=C(\C)C(=O)O)C(C)C)C(C)(C)C)C(C)(C)c1ccccc1 [Taltobulin] | 0.904 ± 0.073 | 0.778 ± 0.011
8 | COc1cc(O)c2c(c1)oc(=O)c1c3cc(O)c(O)cc3oc21 [Wedelolactone] | 0.984 ± 0.11 | 1.04 ± 0.075
9 | COC(=O)C[C@H](NC(=O)[C@H](C)NC(=O)[C@@H](NC(=O)OCc1ccccc1)C(C)C)C(=O)CF | 1.01 ± 0.17 | 1.04 ± 0.12
10 | COc1ccc(-c2cc(=O)c3c(O)cc(O)c(-c4cc(-c5cc(=O)c6c(O)cc(O)cc6o5)ccc4OC)c3o2)cc1 | 1.125 ± 0.0078 | 1.06 ± 0.042
11 | Cc1c(C)c2c(c(C)c1O)CCC(C)(COc1ccc(CC3SC(=O)NC3=O)cc1)O2 (stereo not drawn) [Troglitazone] | 1.06 ± 0.1 | 1.11 ± 0.17
12 | CCCCCCC[N+](CC)(CC)CCCCc1ccc(Cl)cc1 [Clofilium tosylate] | 1.21 ± 0.16 | 1.18 ± 0.24
13 | C=C1C(=O)O[C@@H]2/C=C(\C)CC/C=C(\C)CC[C@@H]12 [Costunolide] | 1.07 ± 0.25 | 0.948 ± 0.14
14 | Oc1ccc2c(c1)OCO2 [Sesamol] | 0.999 ± 0.076 | 1.06 ± 0.076
15 | Nc1c[nH]c(=O)c2cc(-c3ccccc3)sc12 [Thienopyridone] | 1.16 ± 0.28 | 1.06 ± 0.14
16 | COc1cc(C2CC(c3ccccc3)=NN2C(N)=S)cc(OC)c1OC (stereo not drawn) | 1.16 ± 0.16 | 0.964 ± 0.084
17 | CCOC(=O)c1cnc(C#Cc2ccc3c(c2)C(C)(C)CC[S+]3[O-])nc1 (stereo not drawn) | 1.09 ± 0.14 | 0.9945 ± 0.005
18 | O=C(C=Cc1ccccc1)NC(NC(=S)Nc1ccc(Cl)cc1)C(Cl)(Cl)Cl (stereo not drawn) | 1.03 ± 0.22 | 1.16 ± 0.18
19 | Nc1nc(Cl)nc2c1ncn2[C@H]1C[C@H](O)[C@@H](CO)O1 [Cladribine] | 1.04 ± 0.28 | 1.01 ± 0.25
20 | COc1cccc2c1C(=O)c1c(O)c3c(c(O)c1C2=O)C[C@@](O)(C(=O)CO)C[C@@H]3O[C@H]1C[C@H](N)[C@H](O)[C@H](C)O1 [Doxorubicin (hydrochloride)] | 1.1 ± 0.29 | 0.642 ± 0.1
21 | CN(CCO)CC[C@H](CSc1ccccc1)Nc1ccc(S(=O)(=O)NC(=O)c2ccc(N3CCC([C@@H](O)c4ccccc4-c4ccc(Cl)cc4)CC3)cc2)cc1S(=O)(=O)C(F)(F)F | 0.688 ± 0.091 | 0.251
22 | C=C(C)[C@H](CC=C(C)C)Cc1c(O)cc(O)c2c1O[C@H](c1ccc(O)cc1O)CC2=O [Sophoraflavanone G] | 1.15 ± 0.2 | 1.09 ± 0.26

Row | Compound | cell count (compound dose 1 µM) | cell count (compound dose 5 µM)
23 | Nc1cccc2c1C(=O)N(C1CCC(=O)NC1=O)C2=O (stereo not drawn) [Pomalidomide] | 0.992 ± 0.23 | 0.981 ± 0.094
24 | COc1ccc(S(=O)(=O)Nc2cc(-c3c(O)ccc4ccccc34)c(O)c3ccccc23)cc1 | 1.03 ± 0.083 | 1.05 ± 0.1
25 | Cl.Cl.N=C(N)c1ccc2nc(-c3ccc(-c4nc5ccc(C(=N)N)cc5[nH]4)[se]3)[nH]c2c1 [DB1976 (dihydrochloride)] | 0.959 ± 0.19 | 0.986 ± 0.023
26 | O=C1Nc2ccccc2/C1=C1/Nc2ccccc2C1=O [Indirubin] | 1.14 ± 0.11 | 1.14 ± 0.025
27 | COc1cc(C(=O)O)ccc1NC(=O)[C@@H]1N[C@@H](CC(C)(C)C)[C@](C#N)(c2ccc(Cl)cc2F)[C@H]1c1cccc(Cl)c1F [Idasanutlin] | 1.09 ± 0.12 | 1.12 ± 0.16
28 | CC1(C)CCC(C)(C)c2cc(NC(=O)c3ccc(C(=O)O)cc3)ccc21 [Tamibarotene] | 1.01 ± 0.22 | 0.94 ± 0.048
29 | Cc1cc(C)c(Nc2ccnc(Nc3ccc(C#N)cc3)n2)c(C)c1 [Dapivirine] | 1.11 ± 0.023 | 1.07 ± 0.22
30 | C[n+]1cc2c3c(ccc2c2ccc4cc5c(cc4c21)OCO5)OCO3 | 0.921 ± 0.13 | 0.0025 ± 0.0035
31 | Nc1ncnc2c1ncn2[C@@H]1O[C@H](CO)[C@@H](O)[C@H]1O [Adenosine] | 1.13 ± 0.2 | 1.11 ± 0.11
32 | CC(=O)O[C@@]12CO[C@@H]1C[C@H](O)[C@@]1(C)C(=O)[C@H](O)C3=C(C)[C@@H](OC(=O)[C@H](O)[C@@H](NC(=O)OC(C)(C)C)c4ccccc4)C[C@@](O)([C@@H](OC(=O)c4ccccc4)[C@H]21)C3(C)C [Docetaxel] | 1.2 ± 0.22 | 1.17 ± 0.061
33 | O=C(/C=C/c1ccccc1)NC(NC(=S)Nc1cccc2cccnc12)C(Cl)(Cl)Cl (stereo not drawn) [Salubrinal] | 1.13 ± 0.083 | 1.12 ± 0.14
34 | CO[C@H]1C[C@@H]2CC[C@@H](C)[C@@](O)(O2)C(=O)C(=O)N2CCCC[C@H]2C(=O)O[C@H]([C@H](C)C[C@@H]2CC[C@@H](OCCO)[C@H](OC)C2)CC(=O)[C@H](C)/C=C(\C)[C@@H](O)[C@@H](OC)C(=O)[C@H](C)C[C@H](C)/C=C/C=C/C=C/1C [Everolimus] | 1.06 ± 0.33 | 1.03 ± 0.32
35 | Nc1ccn([C@@H]2O[C@H](CO)[C@@H](O)C2(F)F)c(=O)n1 [Gemcitabine] | 0.943 ± 0.4 | 1.04 ± 0.31
36 | Nc1ccn([C@@H]2O[C@H](CO)[C@@H](O)C2(F)F)c(=O)n1 [Gemcitabine HCl] | 1.17 ± 0.23 | 1.18
37 | NCCCCCCNS(=O)(=O)c1cccc2c(Cl)cccc12 [W-7 (hydrochloride)] | 1.09 ± 0.31 | 1.19 ± 0.19
38 | CC1(C)CC[C@]2(C(=O)n3ccnc3)CC[C@]3(C)[C@H](C(=O)C=C4[C@@]5(C)C=C(C#N)C(=O)C(C)(C)[C@@H]5CC[C@]43C)[C@@H]2C1 | 0.122 ± 0.035 | 0.0235 ± 0.0021
39 | C[C@H](NC(=O)/C(C#N)=C/c1cccc(Br)n1)c1ccccc1 | 1.18 ± 0.16 | 0.9 ± 0.15
40 | O=c1[nH]c(=S)[nH]c(-c2ccccc2)c1Cc1c(O)ccc2ccccc12 [Cambinol] | 0.798 ± 0.28 | 1.04 ± 0.052
41 | CCCC(=O)c1c(O)c(Cc2c(O)c(Cc3c(O)c(C)c(OC)c(C(=O)CCC)c3O)c(O)c(C(=O)[C@@H](C)CC)c2O)c(O)c(C)c1OC [Agrimol B] | 1.06 ± 0.27 | 1.16 ± 0.25
42 | Cn1nc(C(F)(F)F)cc1-c1ccc(OCc2ccc(Cl)cc2)c(-c2cc(C(F)(F)F)cc(C(F)(F)F)c2)c1O | 1.16 ± 0.17 | 1.1 ± 0.18
43 | CN1CCC(c2c(O)cc(O)c3c(=O)cc(-c4ccccc4Cl)oc23)C1CO (stereo not drawn) [Riviciclib hydrochloride] | 0.892 ± 0.11 | 0.915 ± 0.21
44 | CN[C@@H](C)C(=O)N[C@H](C(=O)N1CCC[C@H]1C(=O)N[C@H]1c2ccccc2C[C@H]1OCC#CC#CCO[C@@H]1Cc2ccccc2[C@@H]1NC(=O)[C@@H]1CCCN1C(=O)[C@@H](NC(=O)[C@H](C)NC)C1CCCCC1)C1CCCCC1 | 0.334 ± 0.14 | 0.3 ± 0.0092

Row | Compound | cell count (compound dose 1 µM) | cell count (compound dose 5 µM)
45 | CC(C)=CC[C@@H](O)C1=CC(=O)c2c(O)ccc(O)c2C1=O [Shikonin] | 0.949 ± 0.18 | 1.04 ± 0.17
46 | COc1ccc2ccc(=O)oc2c1CC=C(C)C [Osthole] | 1 ± 0.086 | 0.942 ± 0.063
47 | CC(=O)Oc1ccccc1C(=O)O | 1.24 ± 0.2 | 1.38 ± 0.21
48 | O=c1oc2cc(O)ccc2c2ccc(O)cc12 [Urolithin A] | 1.06 ± 0.098 | 1.13 ± 0.17
49 | C=C1C[C@@]2(O)O[C@@]3(C[C@H]2C(C)C)[C@@H](C)CC[C@@H]13 [Curcumol] | 1.04 ± 0.27 | 1.09 ± 0.047
50 | N[C@H](Cc1c[nH]c2ccccc12)C(=O)N/N=C/c1ccc2nccnc2c1 [Rhosin (hydrochloride)] | 1.04 ± 0.067 | 1.14 ± 0.026
51 | NS(=O)(=O)OC[C@H]1C[C@@H](Nc2ccnc3cc(-c4cccc(SC(F)(F)F)c4)nn23)[C@H](O)[C@@H]1O | 0.049 ± 0.016 | 0.016 ± 0.0014
52 | CC(C)c1cc(-c2n[nH]c(=O)n2-c2ccc3c(ccn3C)c2)c(O)cc1O [Ganetespib] | 1.03 ± 0.17 | 0.995 ± 0.15
53 | N#CSc1cc(SC#N)c(N)nc1N | 1.09 ± 0.09 | 1.02 ± 0.042
54 | CCCCc1nc2cc(/C=C/C(=O)NO)ccc2n1CCN(CC)CC [Pracinostat (SB939)] | 0.923 ± 0.13 | 1.06 ± 0.49
55 | COc1c2c(cc3c1-c1c(cc4c(c1OC)OCO4)C[C@H](C)[C@H](C)C3)OCO2 [Schisandrin C] | 0.986 ± 0.14 | 0.891 ± 0.18
56 | O=C(/C=C/c1ccc(O)cc1)C(C(=O)/C=C/c1ccc(O)cc1)C(=O)Nc1ccccc1 | 1.11 ± 0.13 | 1.12 ± 0.17
57 | CS(=O)(=O)c1ncc(Cl)c(C(=O)O)n1 | 1.13 ± 0.2 | 1.21 ± 0.2
58 | CCc1c(C)sc(NC(=S)NC(=O)c2ccc(Cl)cc2)c1C(N)=O | 0.92 ± 0.24 | 0.94 ± 0.18
59 | N=C(N)Nc1ccc(C(=O)Oc2ccc3cc(C(=N)N)ccc3c2)cc1 [Nafamostat (mesylate)] | 1.08 ± 0.22 | 1.1 ± 0.17
60 | NCCN1C(=O)c2cccc3c(Sc4ccc(Br)cc4)ccc(c23)C1=O | 1.13 ± 0.23 | 1.01 ± 0.16
61 | O=C(O[C@@H]1O[C@@H]2COC(=O)c3cc(O)c(O)c(O)c3-c3c(cc(O)c(O)c3O)C(=O)O[C@H]([C@H]1O)[C@@H]2O)c1cc(O)c(O)c(O)c1 [Corilagin] | 1.08 ± 0.14 | 1.1 ± 0.17
62 | COC(=O)Nc1ccc(-c2nc(N3CCOCC3)c3cnn(C4CCN(C(=O)OC)CC4)c3n2)cc1 | 1.16 ± 0.24 | 0.973 ± 0.079
63 | C[C@H](CC(=O)C[C@@H](C)[C@H]1C[C@H](O)[C@@]2(C)C3=C(C(=O)C[C@]12C)[C@@]1(C)CCC(=O)C(C)(C)[C@@H]1C[C@@H]3O)C(=O)O [Ganoderic acid A] | 1.09 ± 0.091 | 1.15 ± 0.033
64 | COc1ccc2c(c1)-c1nn(CCCN(C)C)c3ccc([N+](=O)[O-])c(c13)N2 [Pyrazoloacridine] | 1.19 ± 0.28 | 1.32 ± 0.21

— the supplement of paper PMC12462457
